In PubChem BioAssay AID485367 (National Center for Advancing Translational Sciences (NCATS), 2010):
In all, about 330,000 compounds went through this assay and about 560 (0.17%) were called active. The inconclusive results got no clear call from the source; some entries with a clear call stand among them for comparison. The call rests on the fitted dose curve; in most records, active means well fitted inhibition curve with a large enough effect; inconclusive means small, poorly fitted or top-dose-only effect, or effect the other way; inactive means flat fitted curve, though single readings scatter. Potencies of inconclusive entries are left out as doubtful fits.

The molecules below were run against ATP-dependent 6-phosphofructokinase (Trypanosoma brucei brucei) (UniProt O15648) (assay: qHTS Assay to Find Inhibitors of T. brucei phosphofructokinase). Details: T. brucei PFK, ADP-Glo luminescence; series mostly up to 57.5 µM.
Method in brief: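 Luminescent ADP detection (ADP-Glo, two-step: ATP depletion then ADP-to-ATP conversion for luciferase) reported PFK activity after 45 min room-temperature reaction of 1.25 nM enzyme with 0.5 mM F6P and 0.1 mM ATP at pH 8.0.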
Further: nearly all actives have a fitted effect of over 60% in size.
Potency means the concentration at half of the fitted maximal effect; tags describe the fitted curve by direction and shape.

Sequence of UniProt O15648 (O15648 whole entry, looked up): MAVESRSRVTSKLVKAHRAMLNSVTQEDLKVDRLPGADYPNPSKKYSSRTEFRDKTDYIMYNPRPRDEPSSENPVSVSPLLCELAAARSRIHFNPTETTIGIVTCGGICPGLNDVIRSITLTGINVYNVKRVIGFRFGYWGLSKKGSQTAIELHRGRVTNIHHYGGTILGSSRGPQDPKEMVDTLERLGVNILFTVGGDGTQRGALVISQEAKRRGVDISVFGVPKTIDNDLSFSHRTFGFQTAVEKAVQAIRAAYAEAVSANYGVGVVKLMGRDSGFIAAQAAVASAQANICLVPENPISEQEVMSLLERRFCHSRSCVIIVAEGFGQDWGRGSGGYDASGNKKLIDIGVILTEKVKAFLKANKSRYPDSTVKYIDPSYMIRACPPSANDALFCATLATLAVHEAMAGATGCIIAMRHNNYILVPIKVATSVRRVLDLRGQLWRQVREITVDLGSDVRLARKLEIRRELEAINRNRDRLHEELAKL

SMILES | Potency
CSc1cccc(NC(=O)C2(S(=O)(=O)c3ccc(C)cc3)CC2)c1 | inconclusive [falling, single point]
CC(=O)c1ccc2c(c1)c(C#N)c1ccccc1[n+]2[O-] | inactive
C/C(=C\c1ccco1)C1Nc2cccc3cccc(c23)N1 | inconclusive [falling, single point]
CS(=O)(=O)N1CCN(Cc2ccc([N+](=O)[O-])cc2)CC1 | inconclusive [falling, partial curve]
O=C(NNc1ccccc1[N+](=O)[O-])Nc1cccc(Cl)c1 | inconclusive [falling, partial curve, poor fit]
O=C(/C=C/c1ccccc1)N1c2ccccc2Sc2ccc(C(F)(F)F)cc21 | inactive
O=c1ccccn1Cc1c(F)cccc1Cl | inactive
NC(=O)c1cc2ccccc2o/c1=N/NC(=O)c1cccs1 | inconclusive [activator, single point]
Cc1nc(CNS(=O)(=O)c2cccc(F)c2)cs1 | inactive
O=C(O)C1C2C=CC(CC2)C1C(=O)O (stereo not given) | inconclusive [falling, single point]
COc1cc(/C=C2/C(=N)N3N=C(C(C)C)SC3=NC2=O)ccc1OS(=O)(=O)c1ccccc1 | inactive
O=C(OCc1ccc(Cl)c(Cl)c1)c1ccc[nH]1 | inconclusive [falling, partial curve]
Cc1ccc(-n2nc(C)c(C(=O)O)c2-n2cccc2)cc1 | inconclusive [falling, single point]
O=C(Nc1ccccc1)Nc1ccc2nnsc2c1 | inactive
O=C1c2cccc(OCC(=O)N3CCCc4ccccc43)c2CCN1Cc1cccnc1 | inconclusive [falling, single point]
O=C(O)CCc1ccc(-c2cccs2)n1CCC(=O)O | inconclusive [falling, single point]
Cc1ccc(C)c(N2CCN(C(=O)C3CCN(S(=O)(=O)c4c(C)noc4C)CC3)CC2)c1 | inactive
C(=N\Nc1nc2ccccc2[nH]1)/c1c[nH]c2ccccc12 | inactive
COc1ccc(S(=O)(=O)c2c(O)c3ccc(C(=O)Nc4ccccc4)cc3[nH]c2=O)cc1 | inconclusive [activator, single point]
CN(c1ccccc1C(=O)O)S(=O)(=O)c1ccc2[nH]c(=O)oc2c1 | inactive
CCc1ccc(C2CC(=O)N3CN(c4ccccc4)CSC3=C2C#N)cc1 (stereo not given) | inactive
O=C(Cn1c(=O)oc2ccccc21)Nc1nc(-c2ccccc2)cs1 | inactive
O=c1[nH]cnc2c1c(-c1ccccc1)cn2-c1ccc(F)cc1 | inconclusive [falling, single point]
Cc1cc(SCC(=O)NC(=O)NCc2ccco2)nc2c(C)cccc12 | inconclusive [falling, partial curve]
COc1cccc(N2CC(C(=O)Nc3ccc(F)cc3)CC2=O)c1 (stereo not given) | active: 19 µM
NCCCC[C@H]1NC(=O)[C@H](CCC(=O)O)NC(=O)c2cc([N+](=O)[O-])cc(I)c2OCC[C@@H](C(N)=O)NC1=O | inactive
CNC(=S)NNC(=O)COc1cccc(C)c1C | inconclusive [activator, partial curve]

SMILES | Potency
COc1ccc(NC(=O)CSc2nc3[nH]c(=O)cc(O)c3s2)cc1OC | inactive
C=CCn1c(SCC(=O)N(C)C2CCCCC2)nnc1C1CC1 | inconclusive [falling, single point]
CC(C)Cn1nc(NS(=O)(=O)c2ccccc2)c2cc3ccccc3nc21 | inactive
Nc1ccc(C(=O)O)cc1 | inconclusive [falling, single point]
COc1ccc(-c2csc(NC(=O)c3cccs3)c2C(=O)O)cc1OC | inconclusive [activator, single point]
Cc1ccc(C)c(OCCCC(=O)Nc2ccc(N3CCOCC3)cc2)c1 | inconclusive [falling, partial curve]
O=C(COc1ccccc1[N+](=O)[O-])Nc1cccc(Cl)c1N1CCOCC1 | inconclusive [falling, single point]
CCCCOc1ccc(-c2ncc(N)cn2)cc1 | inactive
CCOC(=O)C/C(C)=N/NC(=O)CNc1cccc(Cl)c1C | active: 23.9 µM
CCCNC(=O)CN1C(=O)NC(CCSC)C1=O (stereo not given) | inactive
NC1=NC(c2ccccc2C(F)(F)F)N(c2ccc(F)c(Cl)c2)C(N)=N1 (stereo not given) | inconclusive [falling, single point]
Cc1ccc(-n2cc(C(=O)c3ccc4ccccc4c3O)cn2)cc1 | inactive
Cc1cccc(NCc2n[nH]c(=S)n2-c2ccccc2)c1 | inconclusive [falling, partial curve]
COc1ccc(/C=C2\C(=O)ON=C2c2ccccc2)cc1OC | inactive
CCc1ccc(C(=O)COC(=O)C(CCSC)NC(=O)c2ccccc2)cc1 (stereo not given) | inconclusive [falling, single point]
Cc1ccc(S(=O)(=O)N(C)C)cc1NC(=O)c1cc(-c2ccco2)nc2ccccc12 | inactive
O=C(CN1CCCCC1)N/N=C/c1ccccc1OCc1ccccc1 | inactive
Cc1ccc(S(=O)(=O)Nc2ccc(C(=O)NCc3cccnc3)cc2)cc1 | inconclusive [falling, single point]
c1ccc2c(c1)[nH]c1c(N3CCCC3)ncnc12 | inactive
c1ccc(OCCOCCN2CCc3ccccc3C2)cc1 | inconclusive [falling, full curve, poor fit]
Cc1ccc(O)c(NC2=C(Cl)C(=O)N(Cc3ccccc3)C2=O)c1 | active: 23.9 µM
N#Cc1cnc2nc(SCc3ccccc3)nn2c1 | inactive
Cc1ccc(/C=C(\C#N)C(=O)Nc2cccc3ncccc23)o1 | inconclusive [falling, full curve]
Cc1cc(Cl)ccc1OCCCC(=O)NO | active: 13.5 µM
CCOC(=O)C1=C(COC(=O)/C=C/c2ccco2)NC(=O)NC1C (stereo not given) | inconclusive [falling, partial curve]
N=c1n(CCN2CCCCC2)c2ccccc2n1CC(O)c1ccc(Cl)c(Cl)c1 (stereo not given) | inactive
CC(C)=C1C(=O)NN(c2ccc(F)c(Cl)c2)C1=O | inactive

SMILES | Potency
CN1CCN(S(=O)(=O)c2ccc(NC(=S)NC(=O)c3ccccc3)cc2)CC1 | inactive
O=S1(=O)C=CC(Nc2cccc(Cl)c2)C1 (stereo not given) | inconclusive [falling, single point]
Cc1nn(CC(=O)N2CCN(c3cccc(C(F)(F)F)c3)CC2)c(=O)c2cccn12 | inconclusive [falling, partial curve]
Oc1ccc(C2C[C@H]3CC[C@@H]2C3)cc1O (stereo not given in full) | inconclusive [falling, partial curve]
O=C(CSc1ccsc1[N+](=O)[O-])N1CCN(c2ccccc2)CC1 | inconclusive [falling, single point]
CC(C)(C)C1CCC2(CC1)NC(=S)N(c1ccccc1)N2 (stereo not given) | inconclusive [falling, single point]
O=C(O)C1C2C=CC(C2)C1C(=O)Nc1ccccc1Br (stereo not given) | inconclusive [falling, single point]
COc1ccc(Nc2ncnc3c2c(C)c(C)n3CCCN(C)C)cc1 | inactive
CSc1ccc(/C=N/n2c(C)cc(C)cc2=O)cc1 | inactive
Cc1nc2ccccc2c2c1C(=O)N(Cc1cccnc1)C2=O | inactive
O=C(NCCCO)Nc1ccc2nc(-c3ccco3)c(-c3ccco3)nc2c1 | inconclusive [falling, full curve]
CCCc1cc(=O)oc2cc(C)c(CN3CCCC3)c(O)c12 | inconclusive [falling, full curve]
O=C(N/N=C/c1ccco1)c1cccc(S(=O)(=O)Nc2ccccc2Cl)c1 | inconclusive [falling, single point]
COc1ccc2c(CC(=O)O)cc(=O)oc2c1 | inactive
COc1cc(N/N=C/c2ccc(N(C)C)cc2)ncn1 | inactive
O=C(NC1CCCCC1)Oc1cccc2ccccc12 | inactive
O=C(CCS(=O)(=O)c1ccc(Br)cc1)NC1CCCC1 | inconclusive [falling, single point]
Cc1oc(=O)c(NC(=O)c2ccc(Cl)cc2)cc1C(=O)c1ccccc1 | active: 16.9 µM
Cc1cc(/C=N/Nc2ccc([N+](=O)[O-])cn2)c(C)n1-c1ccc(C(=O)O)cc1 | inconclusive [falling, single point]
Cc1ccc(/C=C2/NC(=O)N(c3ccccc3)C2=O)o1 | inconclusive [falling, partial curve]
COc1ccccc1CCC(=O)OCC(=O)N1c2ccccc2NC(=O)C1(C)C | inconclusive [falling, single point]
N#Cc1ccc(-n2nccc2-c2cnc3n(c2=O)CCS3)cc1 | inactive
CNC(=S)NNC(=O)c1cccn(Cc2cccc(Cl)c2)c1=O | inconclusive [falling, single point]
C/C(=N\NC(=O)Cc1ccc([N+](=O)[O-])cc1)c1cccnc1 | inconclusive [falling, single point]
COCCCNC(=O)C1CCC(CNS(=O)(=O)c2ccc(Cl)cc2)CC1 (stereo not given) | inconclusive [activator, single point]
COc1ccc(NC(=O)c2noc3c2CCC3)cc1 | inconclusive [falling, single point]
